Measurements from PMC12526058, “1,2,4-Thiadiazolidin-3,5-Diones as Inhibitors of Cysteine Proteases” (Molecules, 2025).

How the values were obtained:
Cathepsin L = biological target: T1, Cathepsin L (Homo sapiens, UniProt P07711); assay: Cathepsin L inhibition, IC50 (Z-Phe-Arg-MCA substrate, 10 min pre-incubation); assay type: biochemical; details: 30 °C, 100 mM sodium acetate, 1 mM EDTA, pH 5.0, Cathepsin L 6.7 nM
T1 construct: made in house; host or cells: Pichia pastoris
Description: Recombinant human Cathepsin L was expressed in Pichia pastoris following the previously described procedures. The enzyme and substrate were used under the following conditions: 100 mM sodium acetate buffer containing 1 mM EDTA, pH 5.0, with substrate Z Phe-Arg-MCA.
The activities of Cathepsin L and Papain were assessed using Z-Phe-Arg-MCA.

Bromelain = Bromelain (Ananas comosus, UniProt P14518); assay: Bromelain inhibition (Z Arg-Arg-MCA substrate); assay type: biochemical; details: pre-incubation during 10 min, 50 mM sodium acetate, 1 mM EDTA, pH 5.0
UniProt P14518, sequence (P14518 whole entry): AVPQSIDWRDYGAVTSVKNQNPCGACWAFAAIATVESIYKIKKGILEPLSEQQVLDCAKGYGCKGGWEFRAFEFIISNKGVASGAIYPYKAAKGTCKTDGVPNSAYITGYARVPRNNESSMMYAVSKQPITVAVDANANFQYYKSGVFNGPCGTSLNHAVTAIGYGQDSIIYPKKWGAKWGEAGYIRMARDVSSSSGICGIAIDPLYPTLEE

Compound | IC50 (Cathepsin L) [nM] | IC50 for inhibition of Cathepsin L (Cathepsin L) | IC50 (Bromelain) [nM]
O=c1sn(-c2ccccc2)c(=O)n1Cc1ccccc1 [THIA-1] | 14000 ± 1000 | in the μM range | 
COc1ccc(-n2sc(=O)n(Cc3ccccc3)c2=O)cc1 [THIA-2] | 21000 ± 2000 | in the μM range | 
O=c1sn(-c2ccccc2)c(=O)n1-c1ccccc1 [THIA-3] | 120 ± 10 |  | 
COc1ccc(-n2sc(=O)n(-c3ccccc3)c2=O)cc1 [THIA-4] | 400 ± 50 |  | 
COc1ccc(-n2sc(=O)n(-c3ccc(C)cc3)c2=O)cc1 [THIA-5] | 150 ± 10 |  | 
COc1ccc(-n2sc(=O)n(-c3ccc(OC)cc3)c2=O)cc1 [THIA-6] | 350 ± 20 |  | 
COc1ccc(-n2sc(=O)n(-c3ccc(Cl)cc3)c2=O)cc1 [THIA-7] | 420 ± 50 | in the nanomolar range | 2000 ± 100
COc1ccc(-n2sc(=O)n(C3CCCCC3)c2=O)cc1 [THIA-8] | 27000 ± 2000 | in the μM range | 
Cc1ccc(-n2sc(=O)n(-c3ccccc3)c2=O)cc1 [THIA-9] | 210 ± 10 |  | 
O=c1sn(-c2ccc(F)cc2)c(=O)n1-c1ccccc1 [THIA-10] | 330 ± 30 |  | 
